Values marked as one replicate rest on one cluster of the flow cell; about a third of the high ones do not repeat.
The sequences below were run on ATP (assay: switch fluorescence ratio, 500 uM ATP over buffer (Cy3 cluster intensity, sum of 5 cycles each) (fold (ratio)); higher = stronger signal-on switching upon ATP binding; sequences stand for … in TCGTCGGCAGCGTCAGATGTGTATAAGAGACAGTTTTTTTTTTTTTTTTTTTTTTTTT…TC). Details: aptamer strand: ATP DNA aptamer (quencher-CACCTGGGGGAGTATTGCGGAGGAAGG + anchor), 100 nM annealed; ATP concentration: 500 uM; one replicate.
In short: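 Clusters carrying Cy3-labelled switching strands on a modified Illumina MiSeq flow-cell were annealed to 100 nM quencher-labelled ATP aptamer and imaged in selection buffer. They were imaged again after 15 min with 500 uM ATP at 22 °C, over five buffer/ATP cycles with NaOH stripping and re-annealing in between. For each cluster, the fluorescence ratio is the summed Cy3 intensity of the target cycles divided by that of the buffer cycles, averaged per switch-domain sequence. Clusters outside 100-1000 RFU were left out.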
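Further: ATP exposure 15 min at 22 °C before imaging.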

Sequence | switch fluorescence ratio
ACGGGACGCC | 1.11
ACGGGACGTG | 0.978
ACGGGAGGGA | 1.02
ACGGGATCAA | 1
ACGGGCCAGT | 0.992
ACGGGCGA | 0.977
ACGGGCGCGC | 0.977
ACGGGGAGAC | 0.999
ACGGGGATAA | 1.03
ACGGGGATC | 1.02
ACGGGGGTCA | 0.992
ACGGGGTACT | 1.06
ACGGGTAACT | 0.992
ACGGTAGGGG | 1.19
ACGGTCACCG | 0.969
ACGGTGACGA | 1.04
ACGGTGGGCA | 1.03
ACGTAATCTG | 1.17
ACGTAATTTA | 1.14
ACGTACCGCA | 1.56
ACGTACGGCG | 1.19
ACGTAGATTA | 1.07
ACGTATTCGC | 1.02
ACGTCAAGGA | 1.14
ACGTCGAAAA | 1.01

Sequence | switch fluorescence ratio
ACGTCTGGCG | 0.967
ACGTCTGGGG | 1.01
ACGTGACGTT | 1.08
ACGTGACTAC | 1.52
ACGTGATATC | 1.84
ACGTGCCCTG | 1.01
ACGTGCCGCC | 1.06
ACGTGCGGTA | 0.995
ACGTGGGCTC | 1.03
ACGTTAAAAG | 1.04
ACGTTAAAGG | 1.11
ACGTTAGAAG | 1.09
ACGTTCACGA | 1.12
ACGTTCTTAT | 1
ACGTTCTTGA | 0.976
ACGTTGACAC | 1.51
ACGTTGATAA | 1.03
ACGTTGCAGT | 0.962
ACGTTTGCTC | 1.04
ACGTTTTGTT | 1.01
ACTAAAAACA | 1.02
ACTAAAGTA | 1
ACTAAAGTTC | 1.02
ACTAACATG | 1.12
ACTAACGCTC | 1.27

Sequence | switch fluorescence ratio
ACTAAGTATG | 0.987
ACTACACGCA | 1.19
ACTACAGTAT | 1.02
ACTACATTAT | 1.05
ACTACCTGGG | 1.32
ACTACGGG | 1
ACTACTAGAA | 0.994
ACTACTCGGT | 1.02
ACTACTGTGA | 1.05
ACTAGGTGGA | 1.04
ACTAGGTGGC | 1.14
ACTAGTATCG | 0.994
ACTAGTGTCG | 1.07
ACTATAGAAA | 0.988
ACTATAGTTT | 1.06
ACTATCGGTG | 1.06
ACTATCTTTC | 1.06
ACTATGGTAG | 0.979
ACTATTGTA | 1.01
ACTCACACGT | 1.39
ACTCCGGCAG | 4.12
ACTCCGGGGG | 1.22
ACTCCTGGAT | 1.11
ACTCGCACAG | 3.25
ACTCGCATTA | 5.25

Sequence | switch fluorescence ratio
ACTCGCCTAT | 1.08
ACTCGCGATT | 1.48
ACTCGCGCCT | 1.13
ACTCGCGCG | 0.993
ACTCGGCAGT | 4.35
ACTCGGGAGA | 1.01
ACTCGTGGTA | 0.999
ACTCGTTCTT | 0.985
ACTCTACGTG | 1.26
ACTCTACTCG | 1.29
ACTCTGATCC | 1.06
ACTCTGGAAA | 1.09
ACTCTTAGAT | 1.11
ACTGAAGCGC | 1.06
ACTGAATAGG | 0.972
ACTGAGCC | 1.08
ACTGATATAA | 0.973
ACTGATGCTG | 1.03
ACTGCCCACG | 1.2
ACTGCGTCAA | 2.42
ACTGCGTG | 0.973
ACTGCGTTCC | 1.43
ACTGGCCCTC | 0.988
ACTGGTAGTC | 0.988
ACTGGTATCG | 1.02

— the supplement of paper PMC10126150
